# Among all 310,000 compounds or so, about 14,000 (4.5%) showed an effect of 50% or more. The effect is printed as a negative number. Some of the results follow.
# Target: human ether-à-go-go-related gene (hERG) potassium channel (human, UniProt Q12809)
# Assay: primary screen, population patch clamp on CHO cells stably expressing hERG
# 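Further: peak tail current of the secondary pulse compared with the same well before compound.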
# human ether-à-go-go-related gene (hERG) potassium channel, sequence (Q12809 whole entry, looked up): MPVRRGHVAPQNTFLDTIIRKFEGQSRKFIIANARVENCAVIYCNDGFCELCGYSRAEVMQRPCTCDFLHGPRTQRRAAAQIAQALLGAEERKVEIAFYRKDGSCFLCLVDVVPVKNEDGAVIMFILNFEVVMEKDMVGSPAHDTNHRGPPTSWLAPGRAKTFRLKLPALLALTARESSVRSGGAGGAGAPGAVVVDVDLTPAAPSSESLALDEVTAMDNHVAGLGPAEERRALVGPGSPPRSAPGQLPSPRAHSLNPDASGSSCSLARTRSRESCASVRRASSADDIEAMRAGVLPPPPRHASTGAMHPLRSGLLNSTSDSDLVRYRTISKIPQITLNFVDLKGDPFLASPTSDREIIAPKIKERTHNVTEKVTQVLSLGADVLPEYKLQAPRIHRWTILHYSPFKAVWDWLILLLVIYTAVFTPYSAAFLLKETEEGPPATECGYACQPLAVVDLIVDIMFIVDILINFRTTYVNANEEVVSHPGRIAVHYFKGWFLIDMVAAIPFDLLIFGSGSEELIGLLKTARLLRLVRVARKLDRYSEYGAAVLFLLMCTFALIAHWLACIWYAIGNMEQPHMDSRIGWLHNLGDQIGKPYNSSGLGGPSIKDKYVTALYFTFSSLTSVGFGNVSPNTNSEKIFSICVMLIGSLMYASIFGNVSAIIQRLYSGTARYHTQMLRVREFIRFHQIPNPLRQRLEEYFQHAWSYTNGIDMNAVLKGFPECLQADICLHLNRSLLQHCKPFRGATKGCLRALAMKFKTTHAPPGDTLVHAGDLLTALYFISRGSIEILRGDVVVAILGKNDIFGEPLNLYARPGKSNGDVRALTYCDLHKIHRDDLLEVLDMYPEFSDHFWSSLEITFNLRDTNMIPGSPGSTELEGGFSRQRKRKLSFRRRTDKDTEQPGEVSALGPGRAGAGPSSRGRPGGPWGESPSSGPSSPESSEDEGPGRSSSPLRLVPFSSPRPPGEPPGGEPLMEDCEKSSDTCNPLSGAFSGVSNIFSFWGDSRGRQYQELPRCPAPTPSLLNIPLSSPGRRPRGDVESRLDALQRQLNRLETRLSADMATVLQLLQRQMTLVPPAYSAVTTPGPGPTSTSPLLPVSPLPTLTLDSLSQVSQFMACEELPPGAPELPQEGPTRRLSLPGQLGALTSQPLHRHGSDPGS
row,Compound,"hERG current change (%, negative = inhibition) at 10uM"
1,O=C1C2=C(SCCS2)C(=O)N1CCCO,4.66%
2,CN(C)CCN(Cc1ccco1)C(=O)c1oc2ccccc2c1NC(=O)COc1ccccc1,-88.7%
3,CCc1ccc(C(=O)NNC(=O)C2CC(=O)N(c3ccc4c(c3)OCCO4)C2)cc1 (centres unmarked),-7%
4,CCOc1ccc(C2CC(=O)NC2=O)cc1 (centres unmarked),6.09%
5,COCCN1C(=O)/C(=C/c2ccc(Oc3ccc([N+](=O)[O-])cn3)c(OC)c2)SC1=Nc1ccccc1,-4.34%
6,CCOc1ccc(N(CC(=O)NCc2ccccc2)C(=O)Cn2nnc(-c3ccc(C)o3)n2)cc1,-6.08%
7,O=C(NC1CCCC1)c1cnc2n(c1=O)CCS2,1.7%
8,CCOC(=O)[C@H]1[C@H]2COc3ccc(C)cc3[C@@H]2N2C(=O)CN(Cc3ccc(OC)cc3)C(=O)[C@@]12C,-14.1%
9,Nc1cc(=O)[nH]c(SCC(=O)N2N=C(c3ccc(Cl)cc3)CC2c2ccco2)n1 (centres unmarked),2.26%
10,COC(=O)C1=C(c2cccc(OCc3ccccc3)c2)C[C@@H]2CC[C@H]1N2C(=O)NCc1ccc(Cl)cc1,14.4%
11,CN1C(=O)c2cccc3c(S(=O)(=O)N(C)C)ccc1c23,3.53%
12,O=C1c2cccnc2C(Nc2ccc(S(=O)(=O)N3CCCCCC3)cc2)N1Cc1ccccc1 (centres unmarked),-9.79%
13,NC(=O)c1cc(N2CC2)c([N+](=O)[O-])cc1[N+](=O)[O-],-0.332%
14,CC(c1ccco1)N(C(=O)c1ccc(C#N)cc1)c1ccccn1 (centres unmarked),1.88%
15,COc1ccccc1-n1c(CNC(=O)c2cccc([N+](=O)[O-])c2C)n[nH]c1=S,35.6%
16,Cc1cccc(NC(=S)NC(C)C(c2cccs2)N2CCN(C)CC2)c1C (centres unmarked),-60.5%
17,COc1cccc(NC(=O)NC(C)C2CC3CCC2C3)c1 (centres unmarked),3.65%
18,Cl.O=C(O)c1cc([N+](=O)[O-])cc([N+](=O)[O-])c1N1CCN(c2cccc(C(F)(F)F)c2)CC1,24%
19,C/C(CC(=O)Nc1cccc(Cl)c1Cl)=N\NC(=O)c1ccccc1C,5.53%
20,COc1ccc(CC(NC(C)=O)C(=O)NC2CCN(c3nnnn3-c3ccccc3)CC2)cc1 (centres unmarked),6.64%
21,CC1(C(=O)O)COC(c2ccc(Cl)cc2)OC1 (centres unmarked),-25.3%
22,O=C(NC(=S)Nc1ccc(Cl)cn1)c1cc([N+](=O)[O-])ccc1N1CCOCC1,11%

row,Compound,"hERG current change (%, negative = inhibition) at 10uM"
1,O=C(C[n+]1cc(-c2ccc(Cl)cc2)n2c1CCC2)N1c2ccccc2Sc2ccccc21.[Cl-],-22.1%
2,Cc1ccc(C(=O)CSc2nc3ccccc3c(=O)n2-c2ccccc2)s1,9.37%
3,Cn1cccc1-c1cc(C(=O)N/N=C/c2ccc(F)cc2)[nH]n1,-20.5%
4,O=C(NNC(=O)c1csc(-c2cccnc2)n1)c1ccccc1,-2.62%
5,COc1cccc(CN(C)Cc2cc(=O)oc3c(C)c(C)ccc23)c1,7.46%
6,Cc1nc(CN(C)C(=O)c2cc(COc3ccc4ncccc4c3)on2)cs1,5.24%
7,COc1c(F)c(F)c(C(=O)Nc2ccccc2N2CCN(C(=O)C(C)C)CC2)c(F)c1F,6.51%
8,COCCn1c(SCc2cc(=O)n3ccsc3n2)nnc1-c1ccncc1,16.7%
9,Cc1cc(NC(=O)NCc2ccccc2)c(=O)n(Cc2ccc(F)cc2)c1,33.1%
10,CCOC(=O)c1cc(NC(=O)Nc2cc(C)ccn2)c(C)nc1C,7.72%
11,COC(=O)c1cn(NC(=O)/C=C/c2cccc(OC)c2OC)c(=O)c2ccccc12,1.59%
12,COc1ccc([N+](=O)[O-])cc1N(CC(O)CN1CCCCC1)S(=O)(=O)c1ccc(C)cc1 (centres unmarked),-42.7%
13,Cc1nn(C)c(C(=O)Sc2cccc(Cl)c2)c1[N+](=O)[O-],13.9%
14,Br.N=C1CCCN1CC(=O)c1ccc(Cl)cc1,1.8%
15,O=C(O)CS/C(=C\c1ccc(F)cc1)c1nc2ccccc2s1,-2.8%
16,O=C(COC(=O)C1CCCCC1)Nc1cc([N+](=O)[O-])ccc1F,35.5%
17,O=C(CCN1CCOCC1)Nc1ccc2c(c1)CCC2,-6.34%
18,CCOC(=O)N1CCN(C(=O)CCCn2c(=S)[nH]c3ccsc3c2=O)CC1,15%
19,CC(C(=O)Nc1cccnc1)n1cc([N+](=O)[O-])cn1 (centres unmarked),17.7%
20,CCCCNC(=O)C1CCC(CNS(=O)(=O)c2cccc3nsnc23)CC1 (centres unmarked),7.06%
21,CCCC(CCC)C(=O)O,10.2%
22,Cc1ccc(N(C)S(=O)(=O)c2ccc(C)cc2)cc1,-15.6%

# Source: publication PMC4336329 (PLoS ONE, 2015)
